At least one compound was matched to its structure with a doubt left. *1 amine or outer side, *2 acyl side, *3 side chain or, on linkers, in order; H or OH if unused. Where a SMILES comes first, the peptide text is derived from it. Side-chain parts run from the residue outwards. [ ]: non-standard residue; d: D form. The star is where a group is joined. X1 = O=C(O)CCCCCCCCCCCCCCCCCCC(=O)NCC1CCC(C(=O)*)CC1; γGlu = O=C(O)[C@H](CCC(=O)[*:2])N[*:1]; Nle = CCCC[C@H](N)C(=O)O; Aib = CC(C)(N)C(=O)O
Key:
[1] = Chemical stability: purity loss by LCMS; type: physicochemical; details: 250 μM, pH 7.4, 37° C., 4 weeks
[2] = Chemical stability: HMWP formation by SEC-MS; type: physicochemical; details: 250 μM, pH 7.4, 37° C., 4 weeks
Experimental: The aim of this study is to determine the chemical stability of GIP derivative compositions. As a measure of stability of the GIP derivative composition, the formation of high molecular weight peptide formation (% HMWP) as a function of time was analysed by size-exclusion chromatography (SEC-MS). Further, the purity loss of the GIP derivative compositions was measured by LCMS. Samples for chemical stability assays were freshly prepared before each assay. […] The pH of the sample was adjusted to the desired value using appropriate amounts of concentrated NaOH and HCl. […] Formation of covalent oligomers (HMWPs) was analysed and identified by a SEC-MS method. […] The LC system was coupled to both a TUV detector operated at 215 nm, 10 Hz and a high resolution QToF mass spectrometer from Waters (Synapt G2S) operated in positive ion mode and m/z range of 100 to 4000 with normal resolution setting. Lock mass correction against Leu-Enkephalin was done every 31 sec. Spectra were processed in MassLynx version 4.1 and MaxEnt deconvoluted.

Structure (SMILES) | Purity loss (%/month) [1] [%/month] | HMWP formation (%/month) [2] [%/month]
CCCC[C@H](NC(=O)[C@H](C)NC(=O)[C@@H](NC(=O)[C@H](CO)NC(=O)[C@H](Cc1ccc(O)cc1)NC(=O)[C@H](CC(=O)O)NC(=O)[C@H](CO)NC(=O)[C@@H](NC(=O)[C@H](Cc1ccccc1)NC(=O)[C@@H](NC(=O)CNC(=O)[C@H](CCC(=O)O)NC(=O)C(C)(C)NC(=O)[C@@H](Cc1ccc(O)cc1)NC(C)=O)[C@@H](C)O)[C@@H](C)CC)[C@@H](C)CC)C(=O)N[C@@H](CC(=O)O)C(=O)N[C@@H](CCCCN)C(=O)N[C@H](C(=O)N[C@@H](CCCNC(=N)N)C(=O)N[C@@H](CCC(N)=O)C(=O)N[C@@H](CCC(N)=O)C(=O)N[C@@H](CC(=O)O)C(=O)N[C@@H](Cc1ccccc1)C(=O)N[C@H](C(=O)N[C@@H](CCCCNC(=O)CC[C@H](NC(=O)CC[C@H](NC(=O)CC[C@H](NC(=O)C1CCC(CNC(=O)CCCCCCCCCCCCCCCCCCC(=O)O)CC1)C(=O)O)C(=O)O)C(=O)O)C(=O)N[C@@H](Cc1c[nH]c2ccccc12)C(=O)N[C@@H](CC(C)C)C(=O)N[C@@H](CC(C)C)C(=O)N[C@@H](C)C(=O)N[C@@H](CCC(N)=O)C(=O)N[C@@H](CCCCN)C(=O)NCC(=O)O)C(C)C)[C@@H](C)CC (stereo partly drawn) [Compound 6, N{1}-acetyl,N{Epsilon-24}-[(4S)-4-carboxy-4-[[(4S)-4-carboxy-4-[[(4S)-4-carboxy-4-[[4-[(19-carboxynonadecanoylamino)methyl]cyclohexanecarbonyl]amino]butanoyl]amino]butanoyl]amino]butanoyl]-[D-Tyr1,Aib2,Nle14,Arg18,Lys24]-hGIP(1-31)] | 5.20 | 0.50
CCCC[C@H](NC(=O)[C@H](C)NC(=O)[C@@H](NC(=O)[C@H](CO)NC(=O)[C@H](Cc1ccc(O)cc1)NC(=O)[C@H](CC(=O)O)NC(=O)[C@H](CO)NC(=O)[C@@H](NC(=O)[C@H](Cc1ccccc1)NC(=O)[C@@H](NC(=O)CNC(=O)[C@H](CCC(=O)O)NC(=O)[C@H](C)NC(=O)[C@@H](Cc1ccc(O)cc1)NC(C)=O)[C@@H](C)O)[C@@H](C)CC)[C@@H](C)CC)C(=O)N[C@@H](CC(=O)O)C(=O)N[C@@H](CCCCN)C(=O)N[C@H](C(=O)N[C@@H](CCCNC(=N)N)C(=O)N[C@@H](CCC(N)=O)C(=O)N[C@@H](CCC(N)=O)C(=O)N[C@@H](CC(=O)O)C(=O)N[C@@H](Cc1ccccc1)C(=O)N[C@H](C(=O)N[C@@H](CCCCNC(=O)CC[C@H](NC(=O)CC[C@H](NC(=O)CC[C@H](NC(=O)C1CCC(CNC(=O)CCCCCCCCCCCCCCCCCCC(=O)O)CC1)C(=O)O)C(=O)O)C(=O)O)C(=O)N[C@@H](Cc1c[nH]c2ccccc12)C(=O)N[C@@H](CC(C)C)C(=O)N[C@@H](CC(C)C)C(=O)N[C@@H](C)C(=O)N[C@@H](CCC(N)=O)C(=O)N[C@@H](CCCCN)C(=O)NCC(=O)O)C(C)C)[C@@H](C)CC (stereo partly drawn) [Compound 8, N{1}-acetyl,N{Epsilon-24}-[(4S)-4-carboxy-4-[[(4S)-4-carboxy-4-[[(4S)-4-carboxy-4-[[4-[(19-carboxynonadecanoylamino)methyl]cyclohexanecarbonyl]amino]-butanoyl]amino]butanoyl]amino]butanoyl]-[D-Tyr1,Nle14,Arg18,Lys24]-hGIP(1-31)] | 6.00 | 0.80
CCCC[C@H](NC(=O)[C@H](C)NC(=O)[C@@H](NC(=O)[C@H](CO)NC(=O)[C@H](Cc1ccc(O)cc1)NC(=O)[C@H](CC(=O)O)NC(=O)[C@H](CO)NC(=O)[C@@H](NC(=O)[C@H](Cc1ccccc1)NC(=O)[C@@H](NC(=O)CNC(=O)[C@H](CCC(=O)O)NC(=O)C(C)(C)NC(=O)[C@@H](N)Cc1ccc(O)cc1)[C@@H](C)O)[C@@H](C)CC)[C@@H](C)CC)C(=O)N[C@@H](CC(=O)O)C(=O)N[C@@H](CCCCN)C(=O)N[C@H](C(=O)N[C@@H](CCCNC(=N)N)C(=O)N[C@@H](CCC(N)=O)C(=O)N[C@@H](CCC(=O)O)C(=O)N[C@@H](CC(=O)O)C(=O)N[C@@H](Cc1ccccc1)C(=O)N[C@H](C(=O)N[C@@H](CCCCNC(=O)CC[C@H](NC(=O)CC[C@H](NC(=O)CC[C@H](NC(=O)C1CCC(CNC(=O)CCCCCCCCCCCCCCCCCCC(=O)O)CC1)C(=O)O)C(=O)O)C(=O)O)C(=O)N[C@@H](Cc1c[nH]c2ccccc12)C(=O)N[C@@H](CC(C)C)C(=O)N[C@@H](CC(C)C)C(=O)N[C@@H](C)C(=O)N[C@@H](CCC(N)=O)C(=O)N[C@@H](CCCCN)C(=O)NCC(=O)O)C(C)C)[C@@H](C)CC (stereo partly drawn) [Compound 10, N{Epsilon-24}-[(4S)-4-carboxy-4-[[(4S)-4-carboxy-4-[[(4S)-4-carboxy-4-[[4-[(19-carboxynonadecanoylamino)methyl]cyclohexanecarbonyl]amino]butanoyl]amino]-butanoyl]amino]butanoyl]-[Aib2,Nle14,Arg18,Glu20,Lys24]-hGIP(1-31)] (H-Y[Aib]EGTFISDYSIA[Nle]DKIRQEDFVK([γGlu-γGlu-γGlu-X1])WLLAQKG-OH) | 4.80 | 1.50
CCCC[C@H](NC(=O)[C@H](C)NC(=O)[C@@H](NC(=O)[C@H](CO)NC(=O)[C@H](Cc1ccc(O)cc1)NC(=O)[C@H](CC(=O)O)NC(=O)[C@H](CO)NC(=O)[C@@H](NC(=O)[C@H](Cc1ccccc1)NC(=O)[C@@H](NC(=O)CNC(=O)[C@H](CCC(=O)O)NC(=O)C(C)(C)NC(=O)[C@@H](N)Cc1ccc(O)cc1)[C@@H](C)O)[C@@H](C)CC)[C@@H](C)CC)C(=O)N[C@@H](CC(=O)O)C(=O)N[C@@H](CCCCN)C(=O)N[C@H](C(=O)N[C@@H](Cc1c[nH]cn1)C(=O)N[C@@H](CCC(N)=O)C(=O)N[C@@H](CCC(N)=O)C(=O)N[C@@H](CC(=O)O)C(=O)N[C@@H](Cc1ccccc1)C(=O)N[C@H](C(=O)N[C@@H](CCCCNC(=O)CC[C@H](NC(=O)CC[C@H](NC(=O)CC[C@H](NC(=O)C1CCC(CNC(=O)CCCCCCCCCCCCCCCCCCC(=O)O)CC1)C(=O)O)C(=O)O)C(=O)O)C(=O)N[C@@H](Cc1c[nH]c2ccccc12)C(=O)N[C@@H](CC(C)C)C(=O)N[C@@H](CC(C)C)C(=O)N[C@@H](C)C(=O)N[C@@H](CCC(N)=O)C(=O)N[C@@H](CCCCN)C(=O)N1CCC[C@H]1C(N)=O)C(C)C)[C@@H](C)CC (stereo partly drawn) [Compound 27, N{Epsilon-24}-[(4S)-4-carboxy-4-[[(4S)-4-carboxy-4-[[(4S)-4-carboxy-4-[[4-[(19-carboxynonadecanoylamino)methyl]cyclohexanecarbonyl]amino]butanoyl]amino]-butanoyl]amino]butanoyl]-[Aib2,Nle14,Lys24,Pro31]-hGIP(1-31) amide] (H-Y[Aib]EGTFISDYSIA[Nle]DKIHQQDFVK([γGlu-γGlu-γGlu-X1])WLLAQKP-NH2) |  | 0.85
CCCC[C@H](NC(=O)[C@H](C)NC(=O)[C@@H](NC(=O)[C@H](CO)NC(=O)[C@H](Cc1ccc(O)cc1)NC(=O)[C@H](CC(=O)O)NC(=O)[C@H](CO)NC(=O)[C@@H](NC(=O)[C@H](Cc1ccccc1)NC(=O)[C@@H](NC(=O)CNC(=O)[C@H](CCC(=O)O)NC(=O)[C@H](C)NC(=O)[C@@H](Cc1ccc(O)cc1)NC(C)=O)[C@@H](C)O)[C@@H](C)CC)[C@@H](C)CC)C(=O)N[C@@H](CC(=O)O)C(=O)N[C@@H](CCCCN)C(=O)N[C@H](C(=O)N[C@@H](CCCNC(=N)N)C(=O)N[C@@H](CCC(N)=O)C(=O)N[C@@H](CCC(N)=O)C(=O)N[C@@H](CC(=O)O)C(=O)N[C@@H](Cc1ccccc1)C(=O)N[C@H](C(=O)N[C@@H](CCCCNC(=O)CC[C@H](NC(=O)CC[C@H](NC(=O)CC[C@H](NC(=O)C1CCC(CNC(=O)CCCCCCCCCCCCCCCCCCC(=O)O)CC1)C(=O)O)C(=O)O)C(=O)O)C(=O)N[C@@H](Cc1c[nH]c2ccccc12)C(=O)N[C@@H](CC(C)C)C(=O)N[C@@H](CC(C)C)C(=O)N[C@@H](C)C(=O)N[C@@H](CCC(N)=O)C(=O)N[C@@H](CCCCN)C(=O)N1CCC[C@H]1C(N)=O)C(C)C)[C@@H](C)CC (stereo partly drawn) [Compound 28, N{1}-acetyl,N{Epsilon-24}-[(4S)-4-carboxy-4-[[(4S)-4-carboxy-4-[[(4S)-4-carboxy-4-[[4-[(19-carboxynonadecanoylamino)methyl]cyclohexanecarbonyl]amino]butanoyl]-amino]butanoyl]amino]butanoyl]-[D-Tyr1,Nle14,Arg18,Lys24,Pro31]-hGIP(1-31) amide] (Ac-[dY]AEGTFISDYSIA[Nle]DKIRQQDFVK([γGlu-γGlu-γGlu-X1])WLLAQKP-NH2) |  | 0.08

— patent publication US11633459B2, “GIP derivatives and uses thereof” (priority 2018, dated 2023)
